In experiment [1] the test system is Human airway smooth muscle cells. The settings on record: 10% FCS, 24 h.
The next experiment relates to Male Swiss albino mice. The settings on record: for PMNx10^6/mouse (time 4h) / mono-mø x10^6/mouse (time 24h): 1 mg/kg i.v. 2 h after zymosan 1 mg/0.5 ml i.p.; for % reduction of PMN (time 4h) / % reduction of mono-mø (time 24h): 1 mg/kg i.v. 2 h after zymosan i.p., vs vehicle.

The structures appear in SMILES notation. Where two headings read alike, the source gives them in different places.

Turning to `C[C@@H]1C[C@H]2[C@@H]3CCC4=CC(=O)C=C[C@]4(C)[C@@]3(F)[C@@H](O)C[C@]2(C)[C@@]1(O)C(=O)COC(=O)CCCO[N+](=O)[O-]` [DXN, Dexamethasone 21-(4-nitrooxybutyrate)], the “3H-thymidine (CPMx1000)” value in experiment [1] (concentration −5 logM) turned out to be 10.8 CPMx1000. Besides, the “3H-thymidine (CPMx1000)” value in experiment [1] (concentration −7 logM) stood at 12.6 CPMx1000. Also, in the experiment on Male Swiss albino mice, the “PMNx10^6/mouse (time 4h)” value is on record as 4.5 ± 0.3 x10^6/mouse, the “mono-mø x10^6/mouse (time 24h)” value is 4.5 ± 0.6 x10^6/mouse, the “% reduction of PMN (time 4h)” value was found to be 55.4% and the “% reduction of mono-mø (time 24h)” value is reported as 48.8%.
For `C[C@@H]1C[C@H]2[C@@H]3CCC4=CC(=O)C=C[C@]4(C)[C@@]3(F)[C@@H](O)C[C@]2(C)[C@@]1(O)C(=O)CO` [Dexamethasone, reference compound], the “3H-thymidine (CPMx1000)” value in experiment [1] (concentration −5 logM) is 14.1 CPMx1000. Moreover, in experiment [1] (concentration −7 logM), the “3H-thymidine (CPMx1000)” value is given as 15.0 CPMx1000. For the same compound, in the experiment with Male Swiss albino mice, the “PMNx10^6/mouse (time 4h)” value was 6.4 ± 0.4 x10^6/mouse, the “mono-mø x10^6/mouse (time 24h)” value was 6.3 ± 0.2 x10^6/mouse, the “% reduction of PMN (time 4h)” value was found to be 36.6% and the “% reduction of mono-mø (time 24h)” value was 28.4%.

Values taken from patent US6610676B1, “Nitrate esters of corticoid compounds and pharmaceutical applications thereof” (Nicox S.A., priority 1996, dated 2003).
